Some of the results follow. Cleavage of a single-stranded DNA pool by Rep nickase domains was read by sequencing (1 h at 37 °C, 3 µM enzyme); the outer parts of the 90-letter strands are left off. Numbers give uncut DNA relative to the enzyme-free pool, as log2; the lower, the more was cut; hits are not called. Shares of all reads are compared; uncut strands gain when others are lost, and binding without cutting may add a little.
Tests used:
Assay in all cases: uncleaved DNA left, log2 of reads against the no-enzyme library (log2 ratio); higher = less cleavage (more negative = more Rep cleavage of the k-mer); sequences stand for … in CTCGTCCG…ACCGGAGA
[1] = system: T1, Rep nickase domain of Muscovy duck circovirus
T1 sequence (residues 1-111, tag not shown): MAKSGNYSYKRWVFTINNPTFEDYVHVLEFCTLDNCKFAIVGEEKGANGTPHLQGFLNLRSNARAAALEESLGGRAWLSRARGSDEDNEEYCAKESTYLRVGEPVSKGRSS
Procedure: (§1)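 A pool of 90-nt single-stranded DNAs with seven random bases just before the constant AC of the nick site (name = the seven bases) was cut by 3 µM recombinant His6-SUMO-tagged Rep nickase domain (300 nM DNA, 50 mM HEPES pH 8.0, 50 mM NaCl, 1 mM MnCl2, 1 h, 37 °C, three replicates). Uncut DNA was amplified and sequenced.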

[2] = system: T2, Rep nickase domain of banana bunchy top virus
T2 sequence (residues 1-94, tag not shown): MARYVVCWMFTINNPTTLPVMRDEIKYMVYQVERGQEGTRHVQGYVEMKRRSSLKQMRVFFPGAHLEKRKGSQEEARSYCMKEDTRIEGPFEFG
Procedure: as §1

[3] = system: T3, Rep nickase domain of cabbage leaf curl virus
T3 sequence (residues 1-116, tag not shown): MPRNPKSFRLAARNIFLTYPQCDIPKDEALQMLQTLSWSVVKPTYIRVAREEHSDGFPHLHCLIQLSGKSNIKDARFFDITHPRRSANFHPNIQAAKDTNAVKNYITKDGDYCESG
Procedure: as §1

[4] = system: T4, Rep nickase domain of chickpea chlorotic dwarf virus
T4 sequence (residues 1-124, tag not shown): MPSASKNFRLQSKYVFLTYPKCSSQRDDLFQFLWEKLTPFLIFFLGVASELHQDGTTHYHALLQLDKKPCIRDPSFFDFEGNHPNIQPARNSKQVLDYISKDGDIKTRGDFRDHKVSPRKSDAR
Procedure: as §1

[5] = system: T5, Rep nickase domain of faba bean necrotic yellows virus
T5 sequence (residues 1-98, tag not shown): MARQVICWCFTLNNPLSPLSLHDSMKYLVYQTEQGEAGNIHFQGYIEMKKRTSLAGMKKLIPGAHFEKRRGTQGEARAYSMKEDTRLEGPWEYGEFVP
Procedure: as §1

[6] = system: T6, Rep nickase domain of maize striate mosaic virus
T6 sequence (residues 1-117, tag not shown): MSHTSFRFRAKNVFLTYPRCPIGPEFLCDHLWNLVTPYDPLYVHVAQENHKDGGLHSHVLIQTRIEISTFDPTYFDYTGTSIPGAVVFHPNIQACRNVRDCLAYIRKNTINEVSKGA
Procedure: as §1

[7] = system: T7, Rep nickase domain of porcine circovirus 2
T7 sequence (residues 2-116, tag not shown): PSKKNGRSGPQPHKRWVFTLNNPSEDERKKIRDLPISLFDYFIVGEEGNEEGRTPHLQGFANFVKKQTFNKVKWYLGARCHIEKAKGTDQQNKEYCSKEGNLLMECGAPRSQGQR
Procedure: as §1

[8] = system: T8, Rep nickase domain of tomato golden mosaic virus
T8 sequence (residues 1-124, tag not shown): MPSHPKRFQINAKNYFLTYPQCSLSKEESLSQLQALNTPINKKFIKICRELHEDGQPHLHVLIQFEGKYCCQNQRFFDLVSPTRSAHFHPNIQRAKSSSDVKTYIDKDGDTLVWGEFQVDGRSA
Procedure: as §1

[9] = system: T9, Rep nickase domain of tomato yellow leaf curl virus
T9 sequence (residues 1-136, tag not shown): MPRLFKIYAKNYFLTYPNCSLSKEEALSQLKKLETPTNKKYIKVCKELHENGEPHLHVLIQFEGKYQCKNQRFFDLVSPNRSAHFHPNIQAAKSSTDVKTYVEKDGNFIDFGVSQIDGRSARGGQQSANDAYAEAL
Procedure: as §1

[10] = system: T10, Rep nickase domain of wheat dwarf virus
T10 sequence (residues 1-137, tag not shown): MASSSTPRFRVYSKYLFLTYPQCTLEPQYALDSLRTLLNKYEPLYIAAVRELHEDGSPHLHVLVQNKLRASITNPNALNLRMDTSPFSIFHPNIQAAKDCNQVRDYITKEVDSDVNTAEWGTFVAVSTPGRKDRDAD
Procedure: as §1

Row | Sequence | uncleaved DNA left (log2) [1] | uncleaved DNA left (log2) [2] | uncleaved DNA left (log2) [3] | uncleaved DNA left (log2) [4] | uncleaved DNA left (log2) [5] | uncleaved DNA left (log2) [6] | uncleaved DNA left (log2) [7] | uncleaved DNA left (log2) [8] | uncleaved DNA left (log2) [9] | uncleaved DNA left (log2) [10]
1 | TGACACT | 0.15 | -0.0146 | 0.404 | -0.621 | 0.0373 | 1.02 | -0.0148 | -0.14 | 0.0384 | 0.134
2 | GTGGCCA | 0.0258 | 0.192 | 0.484 | 1.28 | -0.109 | 1.94 | 0.144 | 0.0869 | 0.128 | 0.0523
3 | CCTGTGT | 0.0674 | -0.296 | -0.481 | -0.936 | -0.229 | -1.23 | -0.0658 | -0.146 | -0.221 | -0.287
4 | TAGAAGA | 0.149 | 0.0729 | -0.00355 | -0.414 | 0.0969 | -0.931 | -0.164 | 0.104 | 0.0559 | 0.122
5 | GCAACGG | -0.00392 | 0.0143 | 0.47 | 1.42 | 0.00765 | 1.93 | 0.134 | 0.0971 | -0.104 | -0.0113
6 | TCCGAAG | 0.0132 | 0.0795 | -0.31 | -0.239 | 0.0197 | -0.522 | 0.152 | 0.11 | 0.129 | -0.113
7 | ATGTCTC | -0.0536 | -0.124 | -0.045 | -0.128 | -0.0406 | -0.104 | -0.384 | 0.0124 | -0.017 | -0.0447
8 | TGATATA | -0.00097 | 0.0264 | 0.14 | -0.83 | 0.0773 | 0.165 | -0.0567 | 0.0797 | 0.148 | 0.0454
9 | AACAGCC | 0.0502 | 0.000625 | -0.264 | -0.632 | 0.0679 | -1.01 | 0.076 | -0.0966 | -0.082 | -0.0152
10 | GCGACAC | 0.0629 | 0.0563 | 0.343 | 0.993 | 0.12 | 1.47 | 0.0874 | 0.127 | 0.0353 | 0.133
11 | CTGGAGC | -0.1 | -0.126 | -0.419 | -0.318 | -0.139 | -0.934 | 0.0182 | -0.117 | -0.0755 | -0.174
12 | CATGCTC | -0.0469 | -0.00731 | -0.4 | -0.962 | -0.0127 | -1.15 | -0.00878 | -0.0845 | 0.0643 | -0.102
13 | CTTGAAG | 0.061 | -0.0735 | -0.729 | -0.506 | 0.0551 | -0.984 | 0.0791 | -0.126 | -0.0361 | -0.0899
14 | TGGGCAG | 0.0335 | 0.07 | 0.857 | 1.83 | 0.0742 | 2.09 | 0.256 | 0.0886 | -0.00293 | 0.165
15 | AGCCCTG | 0.137 | 0.197 | 0.258 | 0.826 | 0.17 | 1.84 | 0.122 | 0.223 | 0.0861 | 0.223
16 | AAGGGAC | -0.0203 | 0.112 | 0.57 | 1.65 | -0.092 | 1.34 | 0.17 | 0.0672 | 0.0491 | 0.108

Row | Sequence | uncleaved DNA left (log2) [1] | uncleaved DNA left (log2) [2] | uncleaved DNA left (log2) [3] | uncleaved DNA left (log2) [4] | uncleaved DNA left (log2) [5] | uncleaved DNA left (log2) [6] | uncleaved DNA left (log2) [7] | uncleaved DNA left (log2) [8] | uncleaved DNA left (log2) [9] | uncleaved DNA left (log2) [10]
17 | AGTCGCC | 0.0717 | 0.0299 | 0.14 | 0.242 | 0.0537 | -0.256 | 0.0691 | 0.0136 | 0.0254 | 0.0213
18 | ATGAAGT | 0.253 | 0.0753 | -0.184 | -0.534 | 0.14 | -0.965 | -0.00681 | 0.0164 | -0.00672 | 0.0195
19 | ACATAGA | 0.043 | -0.0343 | -0.395 | -0.337 | 0.0473 | -1.17 | 0.0202 | 0.0696 | 0.00942 | -0.0612
20 | CTGAAGC | -0.0574 | -0.0401 | -0.437 | -0.638 | -0.0708 | -1.05 | -0.0404 | -0.0431 | -0.0227 | -0.0338
21 | TAACGCC | 0.0469 | -0.0597 | -0.847 | -2.21 | 0.0592 | -0.751 | -0.0966 | -0.0882 | -0.0475 | -0.158
22 | ATATAAC | 0.0722 | -0.0117 | -0.477 | -1.73 | 0.0951 | -0.834 | 0.159 | 0.18 | -0.0251 | 0.0907
23 | GTTGATG | -0.0506 | -0.15 | -0.107 | -0.0621 | -0.0202 | -0.531 | -0.012 | -0.137 | -0.0787 | -0.203
24 | AGTGGCC | 0.00155 | 0.0988 | 0.132 | 0.637 | -0.0328 | 1.06 | 0.072 | 0.157 | 0.0766 | 0.0685
25 | AGAAGCG | 0.0291 | -0.00206 | -0.657 | 0.449 | 0.109 | -0.637 | 0.208 | 0.0642 | 0.0897 | 0.0248
26 | CTGAGCG | -0.0393 | -0.0593 | -0.873 | -0.248 | -0.0227 | -1.18 | 0.119 | -0.0626 | 0.0108 | -0.181
27 | CCTTATA | -0.03 | 0.0548 | 0.0567 | -1.38 | -0.137 | -0.588 | -0.0622 | 0.111 | 0.103 | 0.0443
28 | GGATCGC | 0.0133 | 0.0857 | 0.368 | 0.915 | -0.0688 | 1.03 | 0.092 | -0.0855 | -0.0105 | 0.172
29 | TCTGCCT | -0.0784 | -0.215 | -0.15 | -1.18 | -0.178 | -0.416 | -0.18 | -0.0508 | -0.225 | -0.121
30 | TTTTTTG | 0.0354 | -0.0454 | -0.528 | -0.631 | 0.0676 | -1.09 | 0.0611 | -0.0723 | -0.0298 | -0.0756
31 | ACTACAA | -0.139 | -0.102 | -0.232 | -0.562 | -0.0725 | -0.778 | 0.000904 | -0.101 | -0.103 | 0.0183

Reference: the supplement of paper PMC7826260
